The other results are listed elsewhere or left out.
Experiments:
HSkMC = human skeletal muscle cells; assay: cytotoxicity call (relative viability < 0.9); details: 10 µM
HepG2 = assay: cytotoxicity call (relative viability < 0.9); details: 10 µM
S. aureus RN4220 = assay: growth inhibition call (relative growth <= 0.2); details: 50 µM

| Structure (SMILES) | cytotoxicity call (HSkMC) | cytotoxicity call (HepG2) | growth inhibition call (S. aureus RN4220) |
| --- | --- | --- | --- |
| C=CC[C@H](CC(=O)N(CCO)Cc1ccccc1)C(=O)NC[C@H](OC(=O)[C@@H](CC=C)Cc1ccc(F)cc1)c1ccccc1 | active | inactive | inactive |
| C[C@@H]1CN([C@H](C)CO)C(=O)c2cc(NC(=O)Cn3cnnn3)ccc2O[C@@H]1CN(C)S(=O)(=O)c1ccc(F)cc1 | inactive | inactive | inactive |
| Cc1cc2nc3c(=O)[nH]c(=O)nc-3n(CC(O)C(O)C(O)CO)c2cc1C (stereo not drawn) | inactive | inactive | inactive |
| C[C@H]1CN([C@@H](C)CO)C(=O)Cc2cc(NC(=O)CCCCCC(=O)Nc3ccccc3N)ccc2O[C@@H]1CN(C)CC1CCCCC1 | inactive | inactive | inactive |
| CCCNC(=O)N(C)C[C@H]1Oc2cc(C#Cc3ccccn3)ccc2S(=O)(=O)N([C@@H](C)CO)C[C@H]1C | inactive | inactive | inactive |
| C[C@@H]1CN([C@@H](C)CO)C(=O)c2cc(NS(=O)(=O)c3ccccc3)ccc2O[C@H]1CN(C)S(=O)(=O)c1ccccc1 | inactive | inactive | inactive |
| C[C@@H](Sc1nc(N)cc(N)n1)C(=O)O | inactive | inactive | inactive |
| C[C@@H]1CN([C@@H](C)CO)C(=O)c2cc(NC(=O)CCC(F)(F)F)ccc2O[C@@H](C)CCCCO[C@@H]1CN(C)Cc1ccc(C(=O)O)cc1 | inactive | inactive | inactive |
| C[C@H]1CN([C@@H](C)CO)C(=O)c2cc(NS(=O)(=O)c3ccccc3)ccc2O[C@@H]1CN(C)S(=O)(=O)c1cn(C)cn1 | inactive | inactive | inactive |
| C[C@H]1CN([C@@H](C)CO)C(=O)Cc2cc(NC(=O)c3ccncc3)ccc2O[C@H]1CN(C)Cc1ccncc1 | inactive | inactive | inactive |
| O=C(C[C@@H]1CC[C@H]2[C@@H](COC[C@H](O)CN2S(=O)(=O)c2cccc(F)c2)O1)NCCCN1CCOCC1 | inactive | inactive | inactive |
| Cc1noc(C)c1NC(=O)N(C)C[C@@H]1Oc2ccc(NC(=O)C3CC3)cc2C(=O)N([C@@H](C)CO)C[C@H]1C | inactive | inactive | inactive |
| COC[C@@H](C)NC(=O)C(=O)NC1CC1 | inactive | inactive | inactive |
| O=C(O)c1ccoc1 | inactive | inactive | inactive |
| Cc1ccc(S(=O)(=O)N2C[C@H](O)COC[C@@H]3O[C@H](CC(=O)NCCN4CCCCC4)CC[C@H]32)cc1 | inactive | inactive | inactive |
| C[C@H](CO)N1C[C@H](C)[C@@H](CN(C)C(=O)Nc2cccc3ccccc23)OCCCC[C@H](C)Oc2ccc(NC(=O)CCCN(C)C)cc2C1=O | inactive | inactive | inactive |
| C[C@@H]1CCCCO[C@@H](CN(C)C(=O)NC2CCCCC2)[C@@H](C)CN([C@H](C)CO)C(=O)c2cc(NC(=O)C3CCCCC3)ccc2O1 | inactive | inactive | inactive |
| C[C@H](CO)N1C[C@H](C)[C@H](CN(C)S(=O)(=O)c2cn(C)cn2)Oc2ccc(NS(=O)(=O)c3ccc(Cl)cc3)cc2CC1=O | inactive | inactive | inactive |
| COc1cc(CN2C(=O)[C@@H]3[C@H]4C(=O)O[C@@H](c5ccccc5)[C@H](C)N(C)C(=O)CC/C=C\CN(Cc5ccccc5)C(=O)[C@H]2[C@]32C=C[C@@H]4O2)ccc1O[SiH](C(C)C)C(C)C | inactive | inactive | inactive |
| COc1cc(C(C)=O)cc(OC)c1O | inactive | inactive | inactive |
| O=C(CN1CCOCC1)N[C@H]1CC[C@H](CCNC(=O)C2CCC2)O[C@H]1CO | inactive | inactive | inactive |
| COc1ccc([C@H]([C@H](Cc2ccccc2)OC(C)=O)N(C[C@H](/C=C/c2ccccc2)CC(=O)N(C)C)[C@@H](Cc2ccccc2)C(OC)OC)cc1 | inactive | active | inactive |
| CN(C)C(=O)c1cccc(-c2ccc3n(c2=O)C[C@@H]2[C@@H](CO)[C@H](C(=O)NCC4CC4)N[C@H]32)c1 | inactive | inactive | inactive |
| C[C@@H]1CN([C@H](C)CO)C(=O)c2cccc(NS(=O)(=O)c3ccc(F)cc3)c2O[C@@H]1CN(C)C(=O)Nc1ccc(C(F)(F)F)cc1 | inactive | inactive | inactive |
| C[C@H]1CN([C@@H](C)CO)C(=O)c2cccc(NC(=O)CCCCCC(=O)Nc3ccccc3N)c2O[C@H]1CN(C)C(=O)Nc1ccc(F)cc1 | inactive | inactive | inactive |
| c1ccc(-c2cc(-c3ccccc3)n(-c3ccccc3)n2)cc1 | inactive | inactive | inactive |
